Assay results as given in PubChem BioAssay AID485294 (National Center for Advancing Translational Sciences (NCATS), 2010).
Out of some 370,000 compounds screened, about 150 (0.041%) were called active. The shares of active, inactive and inconclusive entries below differ from those in the screen. Calls come from the whole dose curve; as a rule, active = well fitted inhibition curve with a large enough effect; inconclusive = small, poorly fitted or top-dose-only effect; inactive = flat fitted curve, though single readings scatter. Potencies of inconclusive entries are left out as doubtful fits.
Note: nearly all actives have a fitted effect of over 25% in size.
Potency is the fitted concentration of half-maximal effect; tags give direction and shape of the fitted curve.

What follows are molecules tested against Beta-lactamase (Escherichia coli (strain K12)) (UniProt P00811) (assay: qHTS Inhibitors of AmpC Beta-Lactamase (assay with detergent)). Conditions: AmpC hydrolysis of nitrocefin, absorbance 480 nm, 0.01% Triton; series mostly up to 114 µM.
Chain of UniProt P00811 (P00811 whole entry, looked up): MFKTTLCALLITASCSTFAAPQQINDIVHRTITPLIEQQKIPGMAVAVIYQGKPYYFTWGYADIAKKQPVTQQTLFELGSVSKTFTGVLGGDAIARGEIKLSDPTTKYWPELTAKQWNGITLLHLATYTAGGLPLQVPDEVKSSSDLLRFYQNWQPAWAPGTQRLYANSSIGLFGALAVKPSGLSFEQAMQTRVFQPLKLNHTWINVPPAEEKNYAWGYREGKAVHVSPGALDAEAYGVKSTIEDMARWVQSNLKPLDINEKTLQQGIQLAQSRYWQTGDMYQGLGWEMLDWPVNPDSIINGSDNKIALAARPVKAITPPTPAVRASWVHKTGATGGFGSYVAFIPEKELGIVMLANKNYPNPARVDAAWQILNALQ
Procedure, shortened: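 AmpC (5.3 nM in the dispensed reagent) in 20 mM phosphate pH 7.0 with 0.01% (detergent screen) or 0.0001% Triton X-100 was preincubated with compounds for 15 min at room temperature. Nitrocefin was then added from an 800 uM solution, and hydrolysis was followed at 480 nm.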
For `S=c1nc[nH]c2c1[nH]c1ccc(Cl)cc12`, the Potency was inconclusive [inhibitor, partial curve, poor fit].
In the case of `COc1cccc(NC(=O)Cn2c(=O)n(C)c(=O)c3sc4c(c32)COC(C)(C)C4)c1`, the Potency is reported as “inactive”.
`Cc1ccc(C)c(NC(=O)Cn2c(=O)n(Cc3ccco3)c(=O)c3ccc(C(=O)NC4CCCC4)cc32)c1` was tested, and the Potency was inconclusive [inhibitor, single point].
With `Cc1cccc(C)c1OCC(O)CNC(C)C` (stereo unspecified) the Potency was “inactive”.
In the case of `COc1ccc(-n2c(=S)[nH]c3cc(C(=O)NCc4ccccc4OC)ccc3c2=O)c(OC)c1`, the Potency is reported as inconclusive [inhibitor, full curve, poor fit].
`COc1ccc(-[n+]2c(-c3ccccc3)cc(-c3ccccc3)cc2-c2ccccc2)cc1` was tested, and the Potency was “inactive”.
For `CCOC(=O)CNC(=O)CN1C(=O)CC(c2ccccc2)S(=O)(=O)c2ccccc21` (stereo unspecified), the Potency was “inactive”.
`COC(=O)c1cccc(NC(=O)CN2C(=O)C3CCCCC3C2=O)c1` (stereo unspecified) was tested, and the Potency was inconclusive [inhibitor, full curve].
For `Cc1c(S(=O)(=O)c2ccccn2)c(N)n(Cc2cccc(Cl)c2)c1C`, the Potency was “inactive”.
For `COc1ccc(OCc2cc(C(=O)N3CCCCCCC3)no2)c(Cl)c1`, the Potency was inconclusive [inhibitor, partial curve].
`COc1ccc(/C(N)=N/OC(=O)CC2CCCCC2)cc1` was tested, and the Potency was “inactive”.
With `Cc1ccc(Nc2nc(-c3sc(NC(=O)c4cccc(Cl)c4)nc3C)cs2)cc1` the Potency was inconclusive [inhibitor, partial curve, poor fit].
In the case of `CN(C)C(=O)N1CCCC(C(=O)NCc2ccc(F)cc2Cl)C1` (stereo unspecified), the Potency is reported as inconclusive [inhibitor, full curve, poor fit].
`CC(c1ccc(F)cc1)n1c(-c2ccc3ccccc3n2)n[nH]c1=S` (stereo unspecified) was tested, and the Potency was “inactive”.
`COc1cccc(N(C(C)=O)C2=NCCCS2)c1` was tested, and the Potency was inconclusive [inhibitor, full curve, poor fit].
In the case of `COC(=O)C1CN(C(=O)COc2ccc(Cl)cc2Cl)c2ccccc2O1` (stereo unspecified), the Potency is reported as “inactive”.
`Cc1cc(C)cc(OCC(=O)NCC2(N3CCOCC3)CCCCC2)c1` was tested, and the Potency was “inactive”.
With `N#Cc1c(-c2ccc(Cl)cc2)ccn2nc(C3CCCCC3)nc12` the Potency was “inactive”.
With `O=C(COC(=O)C1(c2ccc(F)cc2)CCCC1)N1CCOCC1` the Potency was inconclusive [inhibitor, full curve, poor fit].
`C/C(=N\Nc1cccc(Cl)c1)c1ccc(-n2ccnc2)cc1` was tested, and the Potency was “inactive”.
In the case of `Cc1cc(C)c2c(n1)SCC(=O)N2CC(=O)NCCC1=CCCCC1`, the Potency is reported as inconclusive [inhibitor, full curve].
`O=C(NC(=S)NC1CCSC1=O)c1cccs1` (stereo unspecified) was tested, and the Potency was inconclusive [inhibitor, partial curve, poor fit].
`CC1=C(C(=O)Nc2cccc(C(F)(F)F)c2)C(c2ccccn2)n2ncnc2N1` (stereo unspecified) was tested, and the Potency was “inactive”.
`O=C(NC1CCCN(Cc2ccc(Cl)cc2)C1)c1ccccc1-c1ncc[nH]1` (stereo unspecified) was tested, and the Potency was inconclusive [inhibitor, full curve, poor fit].
`O=C(CSC1=NS(=O)(=O)c2cc(F)ccc2N1)NCc1ccc(F)cc1` was tested, and the Potency was inconclusive [inhibitor, full curve, poor fit].
For `Cc1ccccc1-c1nc(CS(=O)(=O)CC(=O)NCCCN2CCCC2)c(C)o1`, the Potency was inconclusive [inhibitor, full curve, poor fit].
`Fc1cccc(NC(=S)N2CCCC2)c1` was tested, and the Potency was inconclusive [inhibitor, full curve].
For `CCc1ccc2c(CC(=O)Nc3cccc(S(=O)(=O)N4CCOCC4)c3)coc2c1`, the Potency was inconclusive [inhibitor, full curve].
With `Cc1c(OCc2ccccc2)cccc1OCc1ccccc1` the Potency was inconclusive [inhibitor, full curve, poor fit].
In the case of `COC(=O)COc1ccc(C2NC(=O)NC(C)=C2C(=O)NCc2ccccc2)cc1OC` (stereo unspecified), the Potency is reported as inconclusive [inhibitor, full curve, poor fit].
With `CCOC(=O)C1CCN(Cc2ccc(OC)c(OCc3ccccc3)c2)CC1` the Potency was inconclusive [inhibitor, full curve].
In the case of `COc1ccc2oc(=O)c(-c3nc4ccccc4o3)cc2c1`, the Potency is reported as inconclusive [inhibitor, partial curve].
For `COc1ccc(NC(=O)CSc2ccc([N+](=O)[O-])cc2)cc1S(=O)(=O)N1CCOCC1`, the Potency was inconclusive [inhibitor, partial curve, poor fit].
`CCOC(=O)N1CCC(Nc2nc3ccccc3n3nnnc23)CC1` was tested, and the Potency was “inactive”.
For `CCCCN(C)S(=O)(=O)c1c(C)[nH]c(=O)[nH]c1=O`, the Potency was inconclusive [inhibitor, full curve, poor fit].
In the case of `COc1cc2nc(N(CCCN(C)C)C(=O)c3ccc(S(=O)(=O)N4CCc5ccccc5C4)cc3)sc2cc1OC`, the Potency is reported as inconclusive [inhibitor, full curve, poor fit].
With `Cc1ccc(S(=O)(=O)N2CCCc3cc(NC(=O)c4ccc(C(C)(C)C)cc4)ccc32)cc1` the Potency was “inactive”.
For `COc1ccccc1C(=O)NC(=S)Nc1ccc(Cc2ccncc2)cc1`, the Potency was “inactive”.
In the case of `Cc1ccc(CSc2ncccc2C(=O)O)cc1`, the Potency is reported as inconclusive [inhibitor, full curve, poor fit].
For `Cc1nc(SCC(=O)c2ccc(F)cc2)n[nH]1`, the Potency was inconclusive [inhibitor, single point].
In the case of `COc1ccccc1NC(=O)C1C2C=CC(O2)C1C(=O)O` (stereo unspecified), the Potency is reported as “inactive”.
With `O=C(OCc1ccc(F)cc1Cl)c1ccccn1` the Potency was “inactive”.
For `NNc1nc(N)c2c(n1)-c1ccccc1CC21CCCC1`, the Potency was “inactive”.
For `COCCn1c(SCCCC(=O)c2ccc(Br)cc2)nnc1-c1ccncc1`, the Potency was inconclusive [inhibitor, single point].
For `Cc1ccccc1-n1c(SC(C)C(N)=O)nnc1-c1cccnc1` (stereo unspecified), the Potency was inconclusive [inhibitor, full curve, poor fit].
In the case of `C=C1C[C@H]2[C@@H]3CCc4cc(OC)ccc4[C@H]3CC[C@]12C`, the Potency is reported as inconclusive [inhibitor, single point].
